{"source": "PubChem BioAssay AID624296", "about": "(National Center for Advancing Translational Sciences (NCATS), 2012)", "note": "Screen size: about 350,000 compounds; about 9,900 (2.8%) were called active. The inconclusive results got no clear call from the source; some entries with a clear call stand among them for comparison. Calls follow the shape of the dose curve; as a rule, active = well fitted activation curve with a large enough effect; inconclusive = small, poorly fitted or top-dose-only effect; inactive = no such curve, though single readings can be large or run the other way. Potencies of inconclusive entries are left out as doubtful fits. Potency is read from the fitted curve at half-maximal effect; tags tell the direction and shape of the fitted curve."}
{"experiment": "A quantitative high throughput screen for small molecules that induce DNA re-replication in MCF 10a normal breast cells; also: nearly all actives have a fitted effect of over 50% in size; as to activity, positive = re-replication: % of control where 0% means no effect.", "conditions": "MCF 10A DNA re-replication, Hoechst nuclear intensity, 48 h; activity, positive = re-replication: at 46.1 µM (top of the series)"}
{"smiles": "CC1CC(=O)Nc2ccccc2N1S(=O)(=O)c1ccc(F)cc1F", "note": "(stereo not given)", "Potency": "inconclusive [activator, single point]"}
{"smiles": "NNC(=O)c1cc2c(s1)CCCCCC2", "Potency": "inconclusive [activator, partial curve, poor fit]"}
{"smiles": "COc1ccc(C2=NCN(c3ccc(C)cc3)C(=S)N2)cc1", "activity, positive = re-replication": "inactive: 0.0713%"}
{"smiles": "CCN(CC)c1ccc(/C=N/O)cc1", "Potency": "inconclusive [activator, partial curve, poor fit]"}
{"smiles": "C=C(C)CN1CCN(S(=O)(=O)c2ccc(C)c(N(C)S(=O)(=O)c3ccc(C)cc3)c2C)CC1", "Potency": "inconclusive [activator, single point]"}
{"smiles": "CCCCCC/C(=N/O)c1ccccn1", "Potency": "inconclusive [activator, partial curve, poor fit]"}
{"smiles": "CCOc1ccc(CC(=O)N2CCC3(CC2)NCCc2[nH]cnc23)cc1", "activity, positive = re-replication": "inactive: 5.15%"}
{"smiles": "Cc1nn(-c2ccccc2)c2c1C(O)n1c(nc3ccccc31)S2", "note": "(stereo not given)", "Potency": "active: 16.4 µM"}
{"smiles": "CCN(c1ccccc1)S(=O)(=O)c1ccc(NC(=S)NC(=O)c2ccc(Br)o2)cc1", "Potency": "inconclusive [activator, partial curve, poor fit]"}
{"smiles": "CCOc1ccccc1NC(=O)c1cc(CC(C)C)oc1C", "Potency": "inconclusive [activator, partial curve, poor fit]"}
{"smiles": "COc1ccc(C(=O)N2CCC3(CC2)NCCc2[nH]cnc23)cc1", "activity, positive = re-replication": "inactive: 0.157%"}
{"smiles": "COc1cc(NC(=O)c2cccc(Cl)c2)c(OC)cc1NC(=O)CN1CCOCC1", "Potency": "inconclusive [activator, partial curve, poor fit]"}
{"smiles": "O=c1c(-c2nc3ccccc3s2)cccn1Cc1ccccc1", "Potency": "active: 5.17 µM"}
{"smiles": "CCOc1cc(/C=N/NC(=O)c2ccncc2)ccc1OC(=O)c1ccccc1", "Potency": "inconclusive [activator, single point]"}
{"smiles": "COC(=O)c1cc(C#N)c(N2CCN(C)CC2)nc1C", "Potency": "active: 20.6 µM"}
{"smiles": "COc1ccc(/C=N/NC(=O)c2ccn[nH]2)cc1COc1ccc(Cl)cc1", "Potency": "inconclusive [activator, single point]"}
{"smiles": "Cc1oc(-c2ccc(Cl)cc2)nc1CN1CCC(C(=O)N2CCN(Cc3ccccc3)CC2)CC1", "activity, positive = re-replication": "inactive: 12.5%"}
{"smiles": "COc1ccc2c(c1)CCc1cn3ncc(C#N)c3nc1-2", "Potency": "inconclusive [activator, partial curve, poor fit]"}
{"smiles": "Cc1nc(CNS(=O)(=O)c2cc(C)c(C)cc2C)cs1", "Potency": "inconclusive [activator, single point]"}
{"smiles": "O=C(Nc1cccc(-c2nc3cccnc3s2)c1)C1c2ccccc2Oc2ccccc21", "Potency": "inconclusive [activator, partial curve, poor fit]"}
{"smiles": "COC(=O)c1sc(NC(=O)C2c3ccccc3Oc3ccccc32)c(C(=O)OC)c1C", "activity, positive = re-replication": "inactive: 10.5%"}
{"smiles": "Cc1ccc(SC(=O)c2c(C)noc2-c2cc(C)on2)cc1", "Potency": "inconclusive [activator, single point]"}
{"smiles": "COc1ccc(C)cc1NC(=O)C1CCCN(S(=O)(=O)c2ccc3c(c2)CCCN3C(C)=O)C1", "note": "(stereo not given)", "Potency": "inconclusive [activator, full curve, poor fit]"}
{"smiles": "Cc1oc(-c2ccc(-c3ccccc3)cc2)nc1CN(CCO)C(C)C", "Potency": "inconclusive [activator, single point]"}
{"smiles": "CO[C@H]1C[C@@H]2CC[C@@H](C)[C@@](O)(O2)C(=O)C(=O)N2CCCC[C@H]2C(=O)O[C@H]([C@H](C)C[C@@H]2CC[C@@H](O)[C@H](OC)C2)CC(=O)[C@H](C)/C=C(\\C)[C@@H](O)[C@@H](OC)C(=O)[C@H](C)C[C@H](C)/C=C/C=C/C=C/1C", "Potency": "inconclusive [activator, single point]"}
{"smiles": "Cc1cccc(/C=N/NC(=O)c2ccc(Br)cc2)c1", "Potency": "inconclusive [activator, full curve, poor fit]"}
{"smiles": "Cc1nn2c(N3CCN(C)CC3)cc(C(C)(C)C)nc2c1-c1ccccc1", "Potency": "inconclusive [activator, single point]"}
{"smiles": "CCOC(=O)c1cc2sccc2n1CCCN1C(=O)c2ccccc2C1=O", "Potency": "active: 20.6 µM"}
{"smiles": "CCOC(=O)CNC(=O)C(Cc1ccccc1)NC(=O)OCc1ccccc1", "note": "(stereo not given)", "Potency": "inconclusive [activator, partial curve, poor fit]"}
{"smiles": "CCC(C)N(C(=O)CSc1nc(-c2cccs2)nc2ccccc12)C1CCS(=O)(=O)C1", "note": "(stereo not given)", "Potency": "inconclusive [activator, single point]"}
{"smiles": "COc1cc(OC)cc(C(=O)NC(C(=O)N2CCc3ccccc3C2)C(C)C)c1", "note": "(stereo not given)", "Potency": "inconclusive [activator, single point]"}
{"smiles": "CS(=O)(=O)N1N=C(c2ccc(Br)cc2)CC1c1cccs1", "note": "(stereo not given)", "Potency": "inconclusive [activator, partial curve, poor fit]"}
{"smiles": "Cc1cc(CNC(=O)c2ccc3oc(C(C)C)nc3c2)nn1C", "activity, positive = re-replication": "inactive: -1.18%"}
{"smiles": "COc1cccc(CNC(=O)C2CCC(=O)N(C3CC3)C2)c1OC", "note": "(stereo not given)", "activity, positive = re-replication": "inactive: -3.53%"}
{"smiles": "O=C(CN1CCCCC1)Nc1ccc(NC(=O)c2ccc(Cl)cc2)cc1Cl", "Potency": "inconclusive [activator, full curve]"}
{"smiles": "O=C(c1cc2nc(-c3ccco3)cc(C(F)(F)F)n2n1)N1CCc2ccccc2C1", "activity, positive = re-replication": "inactive: 29%"}
{"smiles": "Cc1ccc(C(=O)C[n+]2ccc(Cc3ccccc3)cc2)cc1", "activity, positive = re-replication": "inactive: 11.2%"}
{"smiles": "CC(=O)Nc1ccc(N=Nc2ccccc2)cc1", "activity, positive = re-replication": "inactive: -5.84%"}
{"smiles": "CCCCOc1ncnc2c1[nH]c1ccc(F)cc12", "Potency": "inconclusive [activator, single point]"}
{"smiles": "CC(C)CC1Nc2ncnc(N3CCN(c4ccccn4)CC3)c2N(Cc2ccc(Br)cc2)C1=O", "note": "(stereo not given)", "Potency": "inconclusive [activator, single point]"}
{"smiles": "CCCCC1S/C(=N/N=C/c2cccs2)NC1=O", "note": "(stereo not given)", "Potency": "inconclusive [activator, single point]"}
{"smiles": "CC(C)n1nc(C(=O)Oc2cc(Cl)ccc2Cl)c2ccccc2c1=O", "Potency": "inconclusive [activator, partial curve, poor fit]"}
{"smiles": "COc1ccccc1C(=O)NCCC(=O)Nc1cccc(C)n1", "activity, positive = re-replication": "inactive: 0.814%"}
{"smiles": "O=C1CCCC(O)=C1C(C#Cc1ccccc1)C1=C(O)CCCC1=O", "Potency": "inconclusive [activator, single point]"}
{"smiles": "CCc1cccc(CC)c1NC(=S)NCc1ccc2[nH]c(C)cc2c1", "Potency": "inconclusive [activator, partial curve, poor fit]"}
{"smiles": "O=S(=O)(c1ccc(Br)cc1)N1CCCC1c1nc2ccccc2s1", "note": "(stereo not given)", "Potency": "inconclusive [activator, partial curve, poor fit]"}
{"smiles": "CC(C)(C)c1cc(P(=O)(c2ccccc2)c2ccccc2)ccc1O", "Potency": "inconclusive [activator, single point]"}
{"smiles": "COc1ccc(-c2oc3ncn(Cc4ccco4)c(=N)c3c2-c2ccc(OC)cc2)cc1", "Potency": "inconclusive [activator, single point]"}
{"smiles": "Cc1ccc(CNC(=O)CS(=O)(=O)Cc2nc(-c3ccc(C)cc3)oc2C)cc1", "Potency": "inconclusive [activator, single point]"}
{"smiles": "CCN1CCN(C(=O)C2CCN(S(=O)(=O)c3ccc4c(c3)NC(=O)C(C)S4)CC2)CC1", "note": "(stereo not given)", "activity, positive = re-replication": "inactive: -0.522%"}
{"smiles": "CS(=O)(=O)N(CC(=O)Nc1ccc(S(=O)(=O)N2CCOCC2)cc1)c1cccc(F)c1", "Potency": "inconclusive [activator, single point]"}
{"smiles": "COc1ccc(C(=O)CC(=O)C(=O)Nc2cccc(C(C)=O)c2)cc1", "activity, positive = re-replication": "inactive: 6.38%"}
{"smiles": "COc1cccc(OCCNc2cc(N3CCOCC3)ccc2[N+](=O)[O-])c1", "Potency": "inconclusive [activator, single point]"}
{"smiles": "Oc1ccc(C=NNC(=S)Nc2cccnc2)nc1", "Potency": "inconclusive [activator, full curve]"}
{"smiles": "COc1ccc(-c2oc3ccc(-c4cc(OC)c(OC)c(OC)c4)cc3c2-c2ccc(OC)nc2)cc1", "Potency": "inconclusive [activator, partial curve, poor fit]"}
{"smiles": "Cc1sc(NC(=O)CN2CCCC2)nc1-c1ccc2c(c1)CCN2C(=O)c1ccc(F)cc1", "activity, positive = re-replication": "inactive: 4.04%"}
{"smiles": "Nc1nc(-c2ccccn2)nc(N)c1Cc1ccccc1F", "Potency": "inconclusive [activator, partial curve, poor fit]"}
{"smiles": "N#Cc1nc(Cc2ccccc2)oc1NCc1ccccc1", "activity, positive = re-replication": "inactive: 7.74%"}
{"smiles": "COc1ccc(NCc2n[nH]c(=O)c3ccccc23)cc1", "Potency": "inconclusive [activator, single point]"}
{"smiles": "C=CCOc1ccc2c(c1)CCC1C2CCC2(C)C(O)C(O)CC12", "note": "(stereo not given)", "Potency": "inconclusive [activator, single point]"}
{"smiles": "CCCOc1ccc(C(=O)NNC(=S)NC(C)=O)cc1", "Potency": "inconclusive [activator, partial curve, poor fit]"}
{"smiles": "CCCCn1c(N)c(C(=S)NC(=O)CC(C)C)c(=O)n(C)c1=O", "Potency": "inconclusive [activator, partial curve, poor fit]"}
{"smiles": "Cc1c(CCC(=O)O)c(=O)oc2cc3occ(-c4ccc(Cl)cc4)c3cc12", "Potency": "inconclusive [activator, full curve, poor fit]"}
{"smiles": "O=C1CN(C(=O)CSc2nc(-c3ccc(Cl)cc3)cs2)c2ccccc2N1", "Potency": "inconclusive [activator, single point]"}
{"smiles": "CC(NC(=O)COC(=O)C1CCN(S(=O)(=O)c2ccccc2C(F)(F)F)CC1)c1ccccc1", "note": "(stereo not given)", "Potency": "inconclusive [activator, partial curve, poor fit]"}
